{
  "source": "paper PMC4336329",
  "about": "(PLoS ONE, 2015)",
  "note": "The campaign covered roughly 310,000 compounds. About 2,200 (0.71%) showed an effect of 50% or more. Effects have a minus sign here. Some of the results follow.",
  "data": [
    {"molecular_target": "human ether-à-go-go-related gene (hERG) potassium channel (human, UniProt Q12809)", "sequence (Q12809 whole entry, looked up)": "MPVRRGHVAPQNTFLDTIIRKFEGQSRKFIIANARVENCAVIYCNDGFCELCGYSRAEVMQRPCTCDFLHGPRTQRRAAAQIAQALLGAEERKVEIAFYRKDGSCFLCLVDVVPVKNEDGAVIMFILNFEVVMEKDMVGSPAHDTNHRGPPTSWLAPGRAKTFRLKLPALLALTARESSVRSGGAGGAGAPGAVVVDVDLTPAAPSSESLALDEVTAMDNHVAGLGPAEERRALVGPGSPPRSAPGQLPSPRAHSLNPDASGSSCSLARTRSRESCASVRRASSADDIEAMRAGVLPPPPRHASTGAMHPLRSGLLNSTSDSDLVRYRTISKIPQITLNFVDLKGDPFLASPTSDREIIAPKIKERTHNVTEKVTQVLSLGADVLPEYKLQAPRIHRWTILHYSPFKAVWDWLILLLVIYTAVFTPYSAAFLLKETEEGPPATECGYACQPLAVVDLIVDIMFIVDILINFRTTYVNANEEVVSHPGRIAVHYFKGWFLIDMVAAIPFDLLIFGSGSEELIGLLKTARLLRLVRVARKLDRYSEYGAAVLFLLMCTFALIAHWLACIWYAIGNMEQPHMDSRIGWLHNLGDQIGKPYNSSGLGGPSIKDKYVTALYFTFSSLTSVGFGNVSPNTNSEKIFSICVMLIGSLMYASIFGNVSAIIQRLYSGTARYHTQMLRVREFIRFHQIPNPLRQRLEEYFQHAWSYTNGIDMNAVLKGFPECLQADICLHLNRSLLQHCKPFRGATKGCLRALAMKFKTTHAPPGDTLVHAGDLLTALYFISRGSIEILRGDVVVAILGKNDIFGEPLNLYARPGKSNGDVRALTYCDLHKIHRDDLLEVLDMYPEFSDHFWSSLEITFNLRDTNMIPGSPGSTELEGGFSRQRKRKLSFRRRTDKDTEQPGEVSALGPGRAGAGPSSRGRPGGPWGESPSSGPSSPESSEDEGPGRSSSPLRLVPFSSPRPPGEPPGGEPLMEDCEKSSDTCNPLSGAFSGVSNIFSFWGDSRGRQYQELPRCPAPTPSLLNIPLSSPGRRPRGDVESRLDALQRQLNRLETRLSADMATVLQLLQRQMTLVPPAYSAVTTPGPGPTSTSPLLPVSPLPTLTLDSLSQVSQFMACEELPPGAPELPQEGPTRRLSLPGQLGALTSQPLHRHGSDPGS", "assay": "primary screen, population patch clamp on CHO cells stably expressing hERG", "units": {"hERG current change (%, negative = inhibition) at 1uM": "%"}, "values": [
      {"smiles": "O=C(NCc1ccncc1)C(=O)N/N=C/c1ccc(OCc2ccccc2)cc1", "hERG current change (%, negative = inhibition) at 1uM": 11.6},
      {"smiles": "CN(C)S(=O)(=O)c1cccc(NC(=O)COC(=O)CCC(=O)c2ccc(F)cc2)c1", "hERG current change (%, negative = inhibition) at 1uM": 1.8},
      {"smiles": "CC(C)CCC(O)(c1ccccc1)C(CN1CCOCC1)c1ccccc1.Cl", "note": "(stereo not drawn)", "hERG current change (%, negative = inhibition) at 1uM": 11.7},
      {"smiles": "COc1ccc(NC(=O)CCNC(=O)c2ccco2)c(OC)c1", "hERG current change (%, negative = inhibition) at 1uM": 12.3},
      {"smiles": "CC(=O)N1Cc2ccccc2CC1C(=O)N1CCN(c2ccccc2)CC1", "note": "(stereo not drawn)", "hERG current change (%, negative = inhibition) at 1uM": 10.1},
      {"smiles": "Cc1cc(C(=O)N/N=C/c2cccc(OC(=O)c3ccco3)c2)n[nH]1", "hERG current change (%, negative = inhibition) at 1uM": 15.4},
      {"smiles": "CC(=O)N1CCN(CCN=CC2=C(O)CC(c3cccs3)CC2=O)CC1", "note": "(stereo not drawn)", "hERG current change (%, negative = inhibition) at 1uM": 10.4},
      {"smiles": "Cc1oc(-c2ccc(Cl)cc2)nc1CN1CCC(C(=O)NCCCN2CCOCC2)CC1", "hERG current change (%, negative = inhibition) at 1uM": -6.29},
      {"smiles": "CSC(SC)=C(C(C)=O)C(=O)c1ccc(C)cc1", "hERG current change (%, negative = inhibition) at 1uM": 1.48},
      {"smiles": "CC(C)c1ccc(C(O)c2nc3ccccc3n2C)cc1", "note": "(stereo not drawn)", "hERG current change (%, negative = inhibition) at 1uM": 6.52},
      {"smiles": "COc1ccccc1NC(=O)C[n+]1ccccc1C.[Cl-]", "hERG current change (%, negative = inhibition) at 1uM": 17.1},
      {"smiles": "CCCCC(CC)CNC(=O)C1CCCN(S(=O)(=O)c2cnc[nH]2)C1", "note": "(stereo not drawn)", "hERG current change (%, negative = inhibition) at 1uM": 5.98},
      {"smiles": "CC(=O)C(C(C)=O)C1(O)C(=O)c2ccccc2C1=O", "hERG current change (%, negative = inhibition) at 1uM": 10.9},
      {"smiles": "Nc1c(Cl)cc(C(=O)c2c3ccccc3[n+]([O-])n2CCC[NH3+])cc1Cl.[Cl-]", "hERG current change (%, negative = inhibition) at 1uM": -0.16},
      {"smiles": "Cc1cc(-c2ccccc2)cc(-c2ccccc2)[n+]1CCc1ccccc1.[O-][Cl+3]([O-])([O-])[O-]", "hERG current change (%, negative = inhibition) at 1uM": -78.4},
      {"smiles": "CCN(CC(=O)NCc1cccs1)C(=O)c1ccc(S(=O)(=O)Nc2ccccc2Cl)cc1", "hERG current change (%, negative = inhibition) at 1uM": 7.54},
      {"smiles": "CC(C)CN(c1ccccc1)S(=O)(=O)c1nnc(NC(=O)C(C)C)s1", "hERG current change (%, negative = inhibition) at 1uM": 12.4},
      {"smiles": "CCOC(CNC(=O)c1cc2c(=O)n(CC)c3ccccc3c2s1)OCC", "hERG current change (%, negative = inhibition) at 1uM": 11.6},
      {"smiles": "OCCNc1nc2ccccc2nc1NCCO", "hERG current change (%, negative = inhibition) at 1uM": 19.9},
      {"smiles": "Cc1ccc(CNC(=O)C(=O)NCCCn2ccnc2)cc1", "hERG current change (%, negative = inhibition) at 1uM": 13.8},
      {"smiles": "O=C(CSc1nnc(-c2cccnc2)n1Cc1ccco1)NCc1ccc2c(c1)OCO2", "hERG current change (%, negative = inhibition) at 1uM": -20.4},
      {"smiles": "COc1ccc(CNC(=S)Nc2cccc(OC)c2)cc1", "hERG current change (%, negative = inhibition) at 1uM": 11},
      {"smiles": "O=C(CSc1nc2ncccc2[nH]1)NCCc1ccccc1", "hERG current change (%, negative = inhibition) at 1uM": 15.4},
      {"smiles": "Cc1ccccc1C(=O)NCCOc1ccccc1Cl", "hERG current change (%, negative = inhibition) at 1uM": 12.9},
      {"smiles": "CCNC(=O)CN(c1ccc(Cl)cc1)S(=O)(=O)c1ccccc1", "hERG current change (%, negative = inhibition) at 1uM": 4},
      {"smiles": "Cn1ccc(NC(=O)Nc2ccc(Cl)cc2Cl)n1", "hERG current change (%, negative = inhibition) at 1uM": 8.81},
      {"smiles": "CC(=O)c1ccc(N2CCC(c3cc(-c4ccc(Cl)cc4)n[nH]3)CC2)c([N+](=O)[O-])c1", "hERG current change (%, negative = inhibition) at 1uM": -8.2},
      {"smiles": "Cc1nn(-c2cc(N3CCOCC3)ccc2N)c(=O)c2ccccc12", "hERG current change (%, negative = inhibition) at 1uM": 4},
      {"smiles": "CCc1nc(NC2CCCCC2)c(C#N)c2c1COC(C)(C)C2", "hERG current change (%, negative = inhibition) at 1uM": 3.54},
      {"smiles": "O=C1c2cccnc2Oc2ccc(Cl)cc2N1Cc1ccc(F)cc1", "hERG current change (%, negative = inhibition) at 1uM": 10.5},
      {"smiles": "CC(=O)Nc1ccc(S(=O)(=O)NC(=O)C23CC4CC(CC(C4)C2)C3)cc1", "hERG current change (%, negative = inhibition) at 1uM": 9.6},
      {"smiles": "CCCCC(=O)Nc1sc2c(c1C(N)=O)CCC2", "hERG current change (%, negative = inhibition) at 1uM": 11.4},
      {"smiles": "CC1CN(C(=O)CS(=O)(=O)Cc2ccccc2)CC(C)O1", "note": "(stereo not drawn)", "hERG current change (%, negative = inhibition) at 1uM": 11},
      {"smiles": "COc1cc2c(cc1OC)C(C)N(C(=O)Cn1ncc3c1-c1ccccc1OC3)CC2", "note": "(stereo not drawn)", "hERG current change (%, negative = inhibition) at 1uM": 1.99},
      {"smiles": "Cc1ccc(SCCC(=O)N2CCOCC2)cc1", "hERG current change (%, negative = inhibition) at 1uM": 1.22},
      {"smiles": "C/C(CC(=O)Nc1ccc(Cl)cc1Cl)=N\\NC(=O)c1ccco1", "hERG current change (%, negative = inhibition) at 1uM": 6.15},
      {"smiles": "CCOc1ccc(NC(=S)Nc2cc(OC)c(Cl)cc2OC)cc1", "hERG current change (%, negative = inhibition) at 1uM": 9.91},
      {"smiles": "Cc1c(C(=O)O)c(C(=O)O)c2n1CCS2", "hERG current change (%, negative = inhibition) at 1uM": 12},
      {"smiles": "Cc1nc(N2CCC(C(N)=O)CC2)c2c(-c3cccs3)csc2n1", "hERG current change (%, negative = inhibition) at 1uM": 12.3},
      {"smiles": "O=C1CN(C(=O)c2ccc(F)c(S(=O)(=O)N3CCOCC3)c2)c2ccccc2N1", "hERG current change (%, negative = inhibition) at 1uM": 26.5},
      {"smiles": "CCC(=O)Nc1ccccc1N1CCN(S(C)(=O)=O)CC1", "hERG current change (%, negative = inhibition) at 1uM": 6.08},
      {"smiles": "Cc1cc(OCC(=O)NCc2ccncc2)c2c3c(c(=O)oc2c1)CCCC3", "hERG current change (%, negative = inhibition) at 1uM": -29.5},
      {"smiles": "CC1CN(c2ccc(Oc3ccccc3)cc2)c2nc3c(c(=O)n(CC(N)=O)c(=O)n3C)n2C1", "note": "(stereo not drawn)", "hERG current change (%, negative = inhibition) at 1uM": 6.7},
      {"smiles": "COC(=O)CNC(c1ccccc1)c1cc(Cl)ccc1NC(=O)c1cccc(Cl)c1", "note": "(stereo not drawn)", "hERG current change (%, negative = inhibition) at 1uM": 8.6},
      {"smiles": "COCCNC(=S)N1CCN(C(c2ccccc2)c2ccccc2)CC1", "hERG current change (%, negative = inhibition) at 1uM": 9.94},
      {"smiles": "Cc1ccc(S(=O)(=O)N2CCN(C(=O)c3ccc([N+](=O)[O-])cc3)C2)cc1", "hERG current change (%, negative = inhibition) at 1uM": -14.7},
      {"smiles": "COC(=O)c1ccc(Cl)c(NC(=O)NC23CC4CC(CC(C4)C2)C3)c1", "hERG current change (%, negative = inhibition) at 1uM": 7.25},
      {"smiles": "COc1ccc(CN2CC[C@H]3C=CC[C@@H](C(=O)NCCc4ccccc4)[C@H]3C2=O)cc1OC", "hERG current change (%, negative = inhibition) at 1uM": 6.91},
      {"smiles": "CCCC(=O)C1=C(O)C(C(=O)OC)C(C)(C)CC1=NCCc1ccccc1", "note": "(stereo not drawn)", "hERG current change (%, negative = inhibition) at 1uM": 17.5},
      {"smiles": "Cc1nc2ccc(C(=O)N3CCN(c4ccccc4)CC3)cc2s1", "hERG current change (%, negative = inhibition) at 1uM": 8.8},
      {"smiles": "Cc1ccccc1-n1nnnc1SCC(=O)Nc1ccc(S(=O)(=O)N2CCCC2)cc1", "hERG current change (%, negative = inhibition) at 1uM": 12.1},
      {"smiles": "O=C(O)CSc1nnc(-c2ccccc2O)n1Cc1ccccc1", "hERG current change (%, negative = inhibition) at 1uM": 1.17},
      {"smiles": "CCCCC(CC)C(=O)Nc1ccc(C#N)cc1", "note": "(stereo not drawn)", "hERG current change (%, negative = inhibition) at 1uM": -7.62},
      {"smiles": "COc1ccc(C2CC(c3c(O)n(CCc4ccccc4)c(=O)[nH]c3=O)=NN2)cc1OC", "note": "(stereo not drawn)", "hERG current change (%, negative = inhibition) at 1uM": 4.53},
      {"smiles": "CCNC(=S)N(CCO)Cc1cc2cc3c(cc2[nH]c1=O)OCO3", "hERG current change (%, negative = inhibition) at 1uM": 14},
      {"smiles": "CCOC(=O)c1cc(-c2ccc(OC)cc2OC)nn1-c1ccc(C(=O)O)cc1", "hERG current change (%, negative = inhibition) at 1uM": 18.3},
      {"smiles": "CSc1ccc(CNC(=O)C2CCC(=O)N(CCc3cccc(F)c3)C2)cc1", "note": "(stereo not drawn)", "hERG current change (%, negative = inhibition) at 1uM": 10.3}
    ]}
  ]
}
